# Where “and” joins values, the source holds several entries; their conditions need not be identical. Equal values may be shown once. The whole screen tested about 360,000 compounds, of which about 11,000 (3.1%) were called active. Inconclusive means that the source gave no clear call. Such entries were picked first, then a sample of the others. Calls come from the whole dose curve; as a rule, active = well fitted inhibition curve with a large enough effect; inconclusive = small, poorly fitted or top-dose-only effect; inactive = no such curve, though single readings can be large or run the other way. Potencies beside an inconclusive call are fits to weak or partial responses and may not hold up.
# Molecular target: Schistosoma mansoni thioredoxin glutathione reductase (TGR) (UniProt Q962Y6)
# Assay: qHTS Assay for the Inhibitors of Schistosoma Mansoni Peroxiredoxins; note: nearly all actives have a fitted effect of over 60% in size
# Conditions: purified TGR, DTNB reduction, TNB absorbance 405 nm; series mostly up to 114 µM
# Method in brief: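 TGR 20 nM + NADPH 100 uM (dispensed conc.), cpd preinc 15 min RT; start with NADPH (500 uM addition) then DTNB (15 mM addition). Kinetic TNB absorbance, 405 nm filter. Four-parameter Hill fit across titration.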
# Potency is the fitted concentration of half-maximal effect; tags give direction and shape of the fitted curve.
row,Structure (SMILES),Potency
1,CCCCC[C@H](O)/C=C/[C@H]1C=CC(=O)[C@@H]1C/C=C\CCCC(=O)O,active: 39.8 µM
2,O=C(COc1ccccc1-c1ccccc1)NCc1ccco1,"inconclusive: 35.5 µM [inhibitor, full curve]"
3,CC(C)(C)CN1CCNC(=O)C1CC(=O)NC1Cc2ccccc2C1 (stereo not drawn),"inconclusive: 39.8 µM [inhibitor, partial curve]"
4,c1ccc(C(c2nnnn2Cc2ccco2)N2CCN(C3CCCC3)CC2)cc1 (stereo not drawn),"inconclusive: 50.1 µM [inhibitor, partial curve]"
5,O=c1c2ccccc2nc2c3ccccc3c3nncn3n12,inactive
6,COc1ccccc1C1=CC(=O)CC(C)(C)C1=O,"inconclusive: 50.1 µM [inhibitor, partial curve]"
7,Cc1ccc(S(=O)(=O)Cc2ccc(C(=O)N3CCN(c4cccc(C)c4C)CC3)o2)cc1,"inconclusive: 44.7 µM [inhibitor, partial curve] and inconclusive: 39.8 µM [inhibitor, full curve, poor fit]"
8,CC1CN(CCC(=O)Nc2ccccc2F)CC(C)O1 (stereo not drawn),"inconclusive: 5.01 µM [inhibitor, full curve, poor fit]"
9,Cc1ccc2c(cnn2C(=O)CCCC(=O)NC(C)c2ccccc2)c1 (stereo not drawn),inactive
10,CCS(=O)(=O)N1CCC(C(=O)NCc2cccnc2)CC1,"inconclusive: 112 µM [inhibitor, partial curve, poor fit]"
11,COc1ccccc1-c1cc(C(F)(F)F)nc(S(=O)(=O)CCCC(=O)N2CCOCC2)n1,active: 31.6 µM
12,CCS(=O)(=O)N1CCC(c2nc3ccccc3[nH]2)CC1,"inconclusive: 14.1 µM [inhibitor, full curve]"
13,CC(OC(=O)C1CC(=O)N(Cc2ccco2)C1)C(=O)Nc1cccc(C#N)c1 (stereo not drawn),"inconclusive: 50.1 µM [inhibitor, partial curve]"
14,COCCNC(=O)CCCn1c(=O)c2cc(OC)c(OC)cc2n(CC(=O)c2cccc(OC)c2)c1=O,"inconclusive: 1 µM [inhibitor, full curve, poor fit]"
15,Cc1onc(-c2ccccc2Cl)c1C(=O)O/N=C(\N)c1ccccc1,"inconclusive: 0.141 µM [inhibitor, full curve, poor fit]"
16,Cc1ccc2nc(COC(=O)CNC(=O)c3ccccc3)cn2c1,inactive
17,Cc1ccccc1CN1CCN(C(=O)c2cc(-c3ccncc3)nc3ccccc23)CC1,"inconclusive: 35.5 µM [inhibitor, full curve, poor fit]"
18,CNC(=S)NNC(=O)c1cc(-c2cccnc2)nc2ccccc12,"inconclusive: 35.5 µM [inhibitor, partial curve]"
19,Cn1c(SCC(=O)N/N=C/c2ccc([N+](=O)[O-])s2)nnc1-c1ccc(Cl)cc1,"inconclusive: 35.5 µM [inhibitor, partial curve]"
20,CN(Cc1ccccc1)C1CCCN(C(=O)c2ccc(Cl)s2)C1 (stereo not drawn),"inconclusive: 44.7 µM [inhibitor, partial curve]"
21,CCN1CCN(c2cc(=O)n(-c3cc(Cl)ccc3C)c(=O)[nH]2)CC1,"inconclusive: 20 µM [inhibitor, full curve]"
22,O=C(NC(=S)Nn1cnc2c(cnn2-c2ccccc2)c1=O)c1ccc(Cl)cc1,"inconclusive: 14.1 µM [inhibitor, full curve]"
23,O=C(c1ccc(-n2cccn2)cc1)N1CCc2ccccc2C1,inactive

row,Structure (SMILES),Potency
1,COC(=O)c1ccc(NC(=O)CSc2nc(=O)n(Cc3ccco3)c3c2CCC3)cc1,"inconclusive: 50.1 µM [inhibitor, partial curve]"
2,Fc1ccccc1C1c2[nH]c3ccccc3c2CCN1CCCn1cccn1 (stereo not drawn),"inconclusive: 50.1 µM [inhibitor, partial curve]"
3,C/C=C(/C)C(=O)O[C@H]1[C@@H](O)c2c(ccc3ccc(=O)oc23)OC1(C)C,inactive
4,O=[N+]([O-])c1ccc2c3n([n+]([O-])c2c1)CCN=C3c1ccc(Cl)cc1,"inconclusive: 39.8 µM [inhibitor, partial curve]"
5,Cc1ccn2cc(-c3cc4ccccc4oc3=O)nc2c1,"inconclusive: 39.8 µM [inhibitor, partial curve]"
6,CCCOc1ccccc1N/C(=N/c1nc(C)cc(C)n1)NC(=O)Nc1ccc(Cl)cc1,inactive
7,COc1ccc(C2c3c(ccc4ccccc34)Oc3ncn4nc(-c5ccco5)nc4c32)cc1 (stereo not drawn),inactive
8,O=C(NCc1ccco1)c1ccc2c(c1)N(Cc1ccccc1)CCS2,"inconclusive: 50.1 µM [inhibitor, partial curve]"
9,Cc1ccccc1Nc1sc(C(=O)c2ccc3c(c2)OCO3)c(N)c1S(=O)(=O)c1ccccc1,"inconclusive: 63.1 µM [inhibitor, partial curve, poor fit]"
10,O=C(NCCN1CCOCC1)c1c[nH]c2ccc(S(=O)(=O)N3CCOCC3)cc2c1=O,"inconclusive: 3.55 µM [inhibitor, single point]"
11,Cc1cc(C)cc(N=Cc2[nH]c3ccc(Br)c(Cl)c3c2O)c1,"inconclusive: 56.2 µM [inhibitor, partial curve]"
12,O=C(O)c1ccc2ncc(NC(=O)c3ccc(F)cc3)c(=O)n2c1,"inconclusive: 3.98 µM [inhibitor, single point]"
13,Cc1coc2c(C)c3oc(=O)c(CCC(=O)NCCN4CCOCC4)c(C)c3cc12,inactive
14,CC(C)=C1C2CCC1C1C(=O)N(c3ccc(C)c(C)c3)C(=O)C21 (stereo not drawn),inactive
15,O=c1nc(/C=C/c2cc([N+](=O)[O-])ccc2Cl)cc(C(F)(F)F)[nH]1,"inconclusive: 44.7 µM [inhibitor, partial curve]"
16,COc1ccc(C(=O)N/C(=C\c2ccco2)C(=O)NC2CCS(=O)(=O)C2)cc1 (stereo not drawn),"inconclusive: 50.1 µM [inhibitor, partial curve]"
17,CCN(CC)CCCN1C(=O)C(O)=C(C(=O)c2ccc(C)o2)C1c1cccs1 (stereo not drawn),active: 44.7 µM
18,O=C(/C=C/c1ccco1)N1CCN(S(=O)(=O)c2ccc(F)c(F)c2F)CC1,active: 5.01 µM
19,COc1cc(C(=O)N2CCCN(c3nc4cc(C)ccc4cc3C#N)CC2)cc(OC)c1OC,inactive
20,O=C(NCCc1ccccc1)C1CCN(C2CCN(Cc3ccc(CO)o3)CC2)CC1,inactive
21,Cc1ccc(CCC(=O)Nc2ccc(CC(=O)O)cc2)o1,"inconclusive: 50.1 µM [inhibitor, partial curve]"
22,CCN1C(=O)NC(=O)/C(=C\c2cn(CC(=O)O)c3ccccc23)C1=O,"inconclusive: 25.1 µM [inhibitor, partial curve]"
23,CCCCn1c(=O)[nH]c(=O)c2c1ncn2Cc1ccco1,"inconclusive: 28.2 µM [inhibitor, full curve]"

row,Structure (SMILES),Potency
1,COc1ccc(Br)cc1CNCCSc1nnnn1C,"inconclusive: 89.1 µM [inhibitor, single point]"
2,CN(C)C(CNC(=O)c1ccc([N+](=O)[O-])cc1Cl)c1ccco1 (stereo not drawn),"inconclusive: 50.1 µM [inhibitor, partial curve]"
3,Cc1cc(C)nc(N/N=C/c2cccc3ccccc23)n1,inactive
4,COc1ccc(OC)c(NC2=C(c3ccccc3)C(=O)c3ccccc32)c1,active: 35.5 µM
5,Cc1ccc(NC(=O)CCC2CC(C)(C)OC2=O)cc1 (stereo not drawn),inactive
6,O=C(c1ccc(Cl)cc1)N1N=CCC1(O)c1ccc(Cl)cc1 (stereo not drawn),"inconclusive: 89.1 µM [inhibitor, single point]"
7,COc1cc(N2C(=O)C=CC2=O)c(OC)cc1Cl,active: 0.708 µM
8,COc1ccc(-c2nn(CC(=O)NC3CCCC3)c3c2cnc2ccc(F)cc23)cc1,inactive
9,CC1CCCC(C)N1C(=O)COC(=O)Cc1ccc(F)cc1 (stereo not drawn),"inconclusive: 44.7 µM [inhibitor, partial curve]"
10,O=C(COC(=O)c1cccnc1Cl)NCc1ccco1,"inconclusive: 44.7 µM [inhibitor, partial curve]"
11,Cc1cc(NC(=O)C(C)Oc2ccc(Cl)cc2Cl)no1 (stereo not drawn),inactive
12,Cc1cc(C)n(CCc2nc(-c3ccco3)cs2)n1,active: 39.8 µM
13,COc1ccc2[nH]c(CN3CCN(CC(C)C)C(CCO)C3)c(C)c2c1 (stereo not drawn),"inconclusive: 50.1 µM [inhibitor, partial curve]"
14,CN(C[C@H](c1ccccc1)N(C[C@H](Cc1ccccc1)N(CCc1ccccc1)N=O)N=O)N=O,"inconclusive: 50.1 µM [inhibitor, partial curve]"
15,CCc1cccc2c1NC(=O)[C@]21[C@@H]2C(=O)N(Cc3ccccc3)C(=O)[C@@H]2[C@@H]2CCCN21,"inconclusive: 39.8 µM [inhibitor, full curve]"
16,COC(=O)c1ccc(CSc2nc3c(c(=O)n2-c2ccc(Br)cc2)SCC3)o1,inactive
17,O=C(O)c1cc2n(n1)C(C(F)(F)F)CC(c1ccco1)N2 (stereo not drawn),"inconclusive: 39.8 µM [inhibitor, partial curve]"
18,COc1ccc(C(c2nnnn2Cc2ccccc2)N2CCN(C(=O)c3ccco3)CC2)cc1 (stereo not drawn),"inconclusive: 50.1 µM [inhibitor, partial curve]"
19,COc1cccc(-c2nc(CS(=O)CC(=O)NC3CC3)c(C)o2)c1 (stereo not drawn),"inconclusive: 28.2 µM [inhibitor, partial curve]"
20,COc1cc(C2C3=C(CC(C)(C)CC3=O)OC(N)=C2[N+](=O)[O-])ccc1O (stereo not drawn),"inconclusive: 22.4 µM [inhibitor, full curve, poor fit]"
21,Cc1ccc(C(=O)C(NC(=O)c2ccco2)Nc2sc3c(c2C(N)=O)CCCC3)cc1 (stereo not drawn),active: 28.2 µM
22,C#CCOCCOCCOCCNc1nc(N2CCN(C(=O)CCCCCCCCCCNC(=O)[C@H]([C@@H](C)CC)n3cc(CCCCN=C(N)N)nn3)CC2)nc(N2CCN(C(=O)CCCCCCCCCCNC(=O)[C@H]([C@@H](C)CC)n3cc(CCCCN=C(N)N)nn3)CC2)n1,active: 39.8 µM

# — PubChem BioAssay AID485364 (National Center for Advancing Translational Sciences (NCATS), 2010)
